Assay results: PMC12136788
The other results are listed elsewhere or left out.

T1: UNK ZnF1-6 (called full-length) (human, UniProt Q9C0B0 30-357)
T1 sequence: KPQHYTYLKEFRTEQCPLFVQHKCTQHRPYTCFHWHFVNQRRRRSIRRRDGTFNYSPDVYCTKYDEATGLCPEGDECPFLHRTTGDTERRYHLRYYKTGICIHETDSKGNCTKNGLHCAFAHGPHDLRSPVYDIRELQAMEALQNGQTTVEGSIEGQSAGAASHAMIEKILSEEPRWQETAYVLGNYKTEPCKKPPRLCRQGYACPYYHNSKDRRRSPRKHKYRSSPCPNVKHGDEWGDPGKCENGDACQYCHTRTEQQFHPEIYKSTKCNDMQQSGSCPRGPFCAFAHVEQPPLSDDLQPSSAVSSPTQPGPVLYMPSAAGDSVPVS

B1: ENSG00000124766:be:win_2801|3pUTR|ENSG00000124766|bound_else_gene|NA|bound_elsewhere_windowed (ssRNA)
RNA: GGGAGUUCUACAGUCCGACGAUCUUUUUCCUUCACCGAUGCUCCAUCCUCGUAUUUCUUUUUCCUUGUAAAUGUAAUCAGAUGCCAUUUUAUAUGUGGACGUAUUUAUACUGGCCAAACAUAUUUUUUCUUUUGUCCCUUUUUCAACAGAGGAUUGAGCAUCA
B2: chr15:43184406:43184511:+|CDS|ENSG00000137842|unk|total|mutant (ssRNA)
RNA: GGGAGUUCUACAGUCCGACGAUCACUGCUGUACAUCUGGCAGGUUUAUUCCUGCUACUUUCUUUAUGCAACAUACGGCACCCCCGCUUUUUUAUUCUCCCCUUUGCGGACCUGGUUGACACUGCUGACACCUGUUCUCAUUCGCAACAGAGGAUUGAGCAUCA
B3: chr16:2586768:2586869:+|CDS|ENSG00000140992|unk|total|mutant (ssRNA)
RNA: GGGAGUUCUACAGUCCGACGAUCCUCCUCACACUCCCUGUCAGCCUCCGACACGGGCCUGCCCCAGAGGUCAGGCAGCAACACCGAGCAGUACAUUCACGAUCUGGACUCGAACUCCUUUGAACUGGACUUACAGUUUUCCGACAACAGAGGAUUGAGCAUCA
B4: ENSG00000083799:stop:overlap|stop_codon|ENSG00000083799|stop_codon|NA|stop_codon (ssRNA)
RNA: GGGAGUUCUACAGUCCGACGAUCCCGAUCGGGAUGGUACUGAAAACGCCUUUCUUCUGCAUGUGGCACAGGGUUCUGGUUUGUAGUGGGACAGUUUGUAGUGGGAUCGCCUGUUCUGAGUGAUAUUUUCUGAGAAAAUCCUUUCAACAGAGGAUUGAGCAUCA
B5: ENSG00000124766:be:win_1751|3pUTR|ENSG00000124766|bound_else_gene|NA|bound_elsewhere_windowed (ssRNA)
RNA: GGGAGUUCUACAGUCCGACGAUCACUUCGAGUUUGCUCCCCUUUGCUUGAAGAGACCCCCUCCCCCUUCCAACGAGCUUCCGGACUUGUCUGCACCCCCAGCAAGAAGGCGAGUUAGUUUUCUAGAGACUUGAAGGAGUCUCCCAACAGAGGAUUGAGCAUCA
B6: chr12:56205560:56205676:-|3pUTR|ENSG00000181852|unk|total|mutant (ssRNA)
RNA: GGGAGUUCUACAGUCCGACGAUCCUCUUGUGGCACAGGCCAUAAUUGUUCCACCGACCCCUCUCCCGCCCUGUGACUGCCGUCCGUUACUUUGAUAAUUUUCUUUGGCCAUUGUUUGUUUAUAUUUCACAAACUCCACCUACUCAACAGAGGAUUGAGCAUCA
B7: chr14:74942539:74942640:-|3pUTR|ENSG00000119630|msi1|total|mutant (ssRNA)
RNA: GGGAGUUCUACAGUCCGACGAUCGUGUAUUUAUUACCGUCACACUCUUCAGUGACUCCUGCUGGUACCUGCCCUCUAUUUAUCCGCCAACUGUUUCCCUGCUGAAUGCCUCGCUCCCUUCAAGACGAGGGGCAGGGAAGGACACAACAGAGGAUUGAGCAUCA
B8: ENSG00000075618:stop:overlap|stop_codon|ENSG00000075618|stop_codon|NA|stop_codon (ssRNA)
RNA: GGGAGUUCUACAGUCCGACGAUCACGCAGGCGUCCUGAAGGCCUCGGCGGAAACCGUGGACCCCGCCUCGCUCUGGGAGUACUAGGGCCGGCCCGUCCUUCCCCGCCCCUGCCCACAUGGCGGCUCCUGCCAACCCUCCCUGCCAACAGAGGAUUGAGCAUCA
B9: chr16:56943551:56943652:+|3pUTR|ENSG00000051108|msi1|total|mutant (ssRNA)
RNA: GGGAGUUCUACAGUCCGACGAUCUGCAUGUCUAUGCUUGAGGAACUUUUCCAAAUGUGUGUGUCUGCAUGUGUGUUUGUACACCGAAGUCACCGAUGCAGAAGUGGUUCUGCUGGUACGAUUUGAUUCCUGUUGGAAUGUUUACAACAGAGGAUUGAGCAUCA
B10: ENSG00000198589:be:win_5901|CDS|ENSG00000198589|bound_else_gene|NA|bound_elsewhere_windowed (ssRNA)
RNA: GGGAGUUCUACAGUCCGACGAUCCUGGGGAAAUUCUGCAGUGAGUCGUCCUCUUGAGUUCUGGCGCCUUGACUACUGGGAAGAUGACUUGCGGCGCCGGCGACGAUUUGUGCGUAACCCUCUAGGAUCGACACAUCCUGAAGCCAACAGAGGAUUGAGCAUCA
B11: chr2:205796339:205796442:+|3pUTR|ENSG00000118257|msi1|total|mutant (ssRNA)
RNA: GGGAGUUCUACAGUCCGACGAUCAAGUCCGCAAGUACUGUGGACAAGAAUGCUUAACCAUGCUGCUUCAGCCUUGAGAGACCCCGGUUCUUACACAUAUGCACACACGCAUACACACAUGCACGCACACACACAUACACACAUCAACAGAGGAUUGAGCAUCA
B12: chr8:42175503:42175666:-|3pUTR|ENSG00000104368|msi1|total|mutant (ssRNA)
RNA: GGGAGUUCUACAGUCCGACGAUCAUGAAAGCAUGUCUCAACCGUAAAAGAUAACAAGAUCUUUCAGGAAAGACGGAUUGCAUCCGAAACCGACAGUAUAUUUACCGUCACAAGAGCCCAGCAGGGCCUCAAAGUUGGGGCAGGCAACAGAGGAUUGAGCAUCA
B13: chr1:150648406:150648517:-|CDS|ENSG00000143457|unk|total|mutant (ssRNA)
RNA: GGGAGUUCUACAGUCCGACGAUCUCAGCGUAUGGACAAGCGAACACCCGCACUCCUGGUGCCCGCCCACUCCUCUGAUGUGCCCGAGAAUGUCUUCUCCUCUCUGACAGAUGACAAGUAUGAUGUGGCAAUGAAUCGAGCCAACAACAGAGGAUUGAGCAUCA
B14: chr3:15255350:15255451:-|3pUTR|ENSG00000131370|msi1|FALSE|unique (ssRNA)
RNA: GGGAGUUCUACAGUCCGACGAUCUGGGGUGGGAAAGGUGAAUGCCAGUGGGGAUGCGGGGGGAUGAGGGUAGGAGGGACUUAUAGAAGGGGAUUUGUGGCUGUGGGGGAGAAGGUUCUACAGCAUAAGCCUUAUCCUGCCAGCCAACAGAGGAUUGAGCAUCA

Each binder was assayed against T1, UNK ZnF1-6 (called full-length) (assay: nsRBNS (natural sequence RNA bind-n-seq); RBNS binding buffer (assumed for nsRBNS): 25 mM Tris pH 7.5, 150 mM KCl, 3 mM MgCl2, 0.01% Triton X-100, 500 ug/ml BSA, 20 U/ml SUPERase-In, 4 C; UNK is unkempt and MSI1 is Musashi-1; names of the RNAs are library labels; protein concentration not given here; high values mean tight binding).

Binder | binding signal [enrichment R]
B1 | 1.64
B2 | 0.743
B3 | 1.02
B4 | 0.474
B5 | 0.925
B6 | 0.873
B7 | 0.536
B8 | 0.757
B9 | 0.307
B10 | 0.478
B11 | 0.661
B12 | 0.626
B13 | 0.636
B14 | 1.15
